From the supplement of paper PMC3334620
Over roughly 33,000 sequences, “E-score (-0.5 to 0.5)” has its median near -0.012; the highest 2% begin near 0.27. The list shows a part of the results.

These sequences were tested against T1, Vhr1 (UniProt P40522) (assay: PBM E-score (8-mer binding enrichment) (E-score (-0.5 to 0.5)); higher = stronger / more preferred TF binding; most listed sequences are background and not binding sites). Conditions: protein concentration: 200 nM; construct: GST-full length.
T1 sequence: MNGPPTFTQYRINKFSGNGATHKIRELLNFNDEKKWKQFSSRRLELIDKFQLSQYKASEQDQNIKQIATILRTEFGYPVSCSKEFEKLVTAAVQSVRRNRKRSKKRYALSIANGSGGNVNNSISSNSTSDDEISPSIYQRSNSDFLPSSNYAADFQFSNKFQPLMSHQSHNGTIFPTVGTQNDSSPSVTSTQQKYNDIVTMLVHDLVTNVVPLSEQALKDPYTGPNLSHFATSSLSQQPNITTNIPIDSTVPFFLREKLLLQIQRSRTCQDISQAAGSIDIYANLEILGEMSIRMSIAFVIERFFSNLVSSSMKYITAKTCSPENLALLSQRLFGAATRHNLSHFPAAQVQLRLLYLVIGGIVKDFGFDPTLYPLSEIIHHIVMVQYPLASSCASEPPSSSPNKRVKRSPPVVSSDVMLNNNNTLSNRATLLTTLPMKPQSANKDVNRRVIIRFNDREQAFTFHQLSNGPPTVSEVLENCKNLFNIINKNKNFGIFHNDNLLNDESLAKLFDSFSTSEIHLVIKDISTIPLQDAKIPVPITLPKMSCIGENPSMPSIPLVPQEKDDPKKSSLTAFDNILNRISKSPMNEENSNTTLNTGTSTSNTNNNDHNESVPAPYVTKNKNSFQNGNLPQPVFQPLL
Description: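 Universal 'all 10-mer' protein binding microarrays (Agilent AMADID 015681) probed with GST-tagged S. cerevisiae TFs (full-length or DBD) made by in vitro transcription/translation (PURExpress), about 100-200 nM. Bound TF was detected with fluorescent anti-GST. Each ungapped 8-mer (which stands for itself and its reverse complement) is scored by the PBM enrichment score (E-score), a modified Wilcoxon-Mann-Whitney statistic from -0.5 to +0.5, computed with the Universal PBM Analysis Suite. Scale: above 0.35 generally sequence-specific binding.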

Sequence | PBM E-score
CCCCTAGC | -0.209
GGCACGCA | -0.0899
ACAGTAAC | 0.227
ACGCGGGG | 0.179
CACTGCTA | -0.0886
CGACGAGC | -0.0522
ACTGGGGC | -0.213
CCTTAAGC | -0.203
TCGGAGAA | 0.026
TCGAGCAA | -0.0616
AGGACATG | -0.0607
GGCTGACC | -0.0749
ATAGGCGA | -0.0938
GATAACCA | 0.123
CGGTCTAC | -0.0173
AACAATCG | -0.115
CGTTAGTA | 0.149
AGTGTACC | -0.0103
CCGATGAA | -0.0715
TAGCCCGA | -0.11
CTGGTTCC | 0.0593
GCCGGCGC | 0.0181
CTTTTTTC | -0.218
CAGGAGCC | -0.0558
AGTGCGCA | 0.112

Sequence | PBM E-score
ACTACGAT | 0.129
ATGCGCCG | -0.0423
GTGGCACA | -0.014
AGGTTGGC | -0.0591
ATTAAAAC | 0.0909
GCGCCAAC | -0.0311
CGCGGGAG | 0.115
TCTTCTCA | -0.102
ACCAGAGT | 0.00338
AGAGTCCT | -0.17
GATCCTGC | -0.0104
CCCGAAGC | -0.0472
TACTGCCA | -0.0155
CACTTATG | 0.181
GACCCAGA | 0.0388
CAATTCCG | -0.104
GACAGACC | -0.067
AACAGACA | 0.285
AGATGCAA | -0.0804
AACAGCAG | -0.00716
ATGCGCTC | -0.0739
ACACCTTA | -0.109
TGATTCCA | 0.364
ACATAAGA | 0.0637
ATTGTCGA | 0.0708

Sequence | PBM E-score
AATGCAGG | 0.0726
CACATGTC | 0.065
ATCACGAC | 0.0915
CTGATCAG | 0.0954
AACAATAG | 0.0304
GCACTTGA | -0.145
CGTATCAA | -0.143
AGATTCTC | -0.00317
ATCACACG | 0.102
ATTCTGAA | -0.0643
CGGTTTGA | 0.00753
CACCGCGC | 0.194
AAGTTTAG | -0.0765
AGGGTTTG | 0.019
AAGACTGC | -0.132
AGCGACTG | 0.194
TAAATAGA | -0.332
ACACAGCA | 0.286
CAGGAGCA | -0.0241
GCGGCCGA | 0.0326
CATCGTCC | 0.179
CGTGGTGC | -0.275
ATTGGTGA | 0.0537
GGATGAGA | -0.00804
GAGTTCAA | -0.171

Sequence | PBM E-score
CCACATGC | 0.118
ATTACACA | 0.233
AGGCGATC | -0.133
AAGATCCC | -0.07
ACCGCGAT | -0.0571
AGGAATCG | 0.0478
CCGAGCGG | 0.0783
AGCCTCAG | 0.0596
GTCATTTA | 0.114
CATGGTGC | -0.084
ACTTAGGG | 0.001
CGGTTTGC | -0.0432
AAAGATTG | -0.137
CTGAATCC | 0.224
GGGCGGCA | -0.0948
CATTTGTC | -0.115
GTAGAGGA | -0.261
GCCAGAGA | -0.0762
CATGAGGG | -0.0955
ACCCTCGG | -0.0507
CATACTGA | 0.123
GACATACA | 0.155
ACTAACTG | 0.257
CCATAACG | 0.0844
GGAAAATA | -0.0659

Sequence | PBM E-score
GAGCCTGA | -0.0227
AACGTCTA | -0.148
GAAGGTTA | -0.0452
GCCACTGA | 0.0772
CCCTTGAG | -0.0267
ATAACTTC | 0.0525
AAGGAGGA | -0.313
AAATTCTC | -0.24
GCATGGGA | -0.0657
CGACCTGA | 0.00296
GATCCCAA | -0.197
CCTATTGC | -0.229
AAATACCT | -0.212
AACGCCGT | -0.268
AATCAGCG | 0.25
ACACTGGA | 0.181
GCTGTATA | -0.0417
CGGCAGCA | -0.0628
TCGTGGCA | -0.017
GCGCTTAA | -0.108
CGACTTCC | -0.113
GCGTCTAA | -0.205
AAATACTC | 0.0554
AGGTCGCG | -0.0518
CGAGAGGC | -0.198

Sequence | PBM E-score
ACCTACCA | 0.147
CGCTAGAA | -0.114
ATGGCGGG | 0.23
ATGGGCGA | 0.205
ACTATGAA | 0.0955
CGCAGCTC | -0.0964
GTCCGCAA | 0.053
ATGGCAGG | 0.0464
GCCTTTCA | -0.137
AGACAAGG | -0.152
GAGCTTGA | -0.0784
CGGAACCC | 0.0267
ATTGAATC | -0.0678
AGAGAAGG | -0.0657
ATTTCACG | -0.0211
AGACTAAG | -0.101
ACTTATCC | -0.0236
AGTTGAGG | -0.0649
GCCTGGAC | -0.0385
AAGGTTTC | -0.0254
ACCTGCTA | -0.0446
TACAGGCA | 0.0836
GTGTACAC | 0.0577
AGGGCATA | -0.112
CGTGTTAC | 0.147

Sequence | PBM E-score
GTGAGTAA | 0.24
ATTAAATC | 0.16
ATTGATTA | 0.0719
GTATAATA | 0.144
ACGTCGCC | -0.0978
ACCGGGGG | -0.135
GTCCTAAA | 0.0155
ACACGCTA | 0.0344
GCGACTTA | -0.104
AGTCATGA | 0.466
CTCCGTAC | 0.0746
CGATAAAG | -0.215
CAATGTAG | 0.00218
GACGTAGA | -0.195
AGGTCACC | -0.16
AGCCAGAG | 0.0139
AGATCATG | -0.0772
ACGCCGGG | -0.00379
ACCCAGCT | 0.0775
CCTGTCTC | 0.0917
AAGTGCAC | -0.102
AATAATAC | 0.054
